The campaign covered roughly 310,000 compounds. About 14,000 (4.5%) showed an effect of 50% or more. Effects have a minus sign here. The list shows a part of the results.
These molecules were tested against human ether-à-go-go-related gene (hERG) potassium channel (human, UniProt Q12809) (assay: primary screen, population patch clamp on CHO cells stably expressing hERG).
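Also: peak tail current of the secondary pulse compared with the same well before compound.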

human ether-à-go-go-related gene (hERG) potassium channel, sequence (Q12809 whole entry, looked up): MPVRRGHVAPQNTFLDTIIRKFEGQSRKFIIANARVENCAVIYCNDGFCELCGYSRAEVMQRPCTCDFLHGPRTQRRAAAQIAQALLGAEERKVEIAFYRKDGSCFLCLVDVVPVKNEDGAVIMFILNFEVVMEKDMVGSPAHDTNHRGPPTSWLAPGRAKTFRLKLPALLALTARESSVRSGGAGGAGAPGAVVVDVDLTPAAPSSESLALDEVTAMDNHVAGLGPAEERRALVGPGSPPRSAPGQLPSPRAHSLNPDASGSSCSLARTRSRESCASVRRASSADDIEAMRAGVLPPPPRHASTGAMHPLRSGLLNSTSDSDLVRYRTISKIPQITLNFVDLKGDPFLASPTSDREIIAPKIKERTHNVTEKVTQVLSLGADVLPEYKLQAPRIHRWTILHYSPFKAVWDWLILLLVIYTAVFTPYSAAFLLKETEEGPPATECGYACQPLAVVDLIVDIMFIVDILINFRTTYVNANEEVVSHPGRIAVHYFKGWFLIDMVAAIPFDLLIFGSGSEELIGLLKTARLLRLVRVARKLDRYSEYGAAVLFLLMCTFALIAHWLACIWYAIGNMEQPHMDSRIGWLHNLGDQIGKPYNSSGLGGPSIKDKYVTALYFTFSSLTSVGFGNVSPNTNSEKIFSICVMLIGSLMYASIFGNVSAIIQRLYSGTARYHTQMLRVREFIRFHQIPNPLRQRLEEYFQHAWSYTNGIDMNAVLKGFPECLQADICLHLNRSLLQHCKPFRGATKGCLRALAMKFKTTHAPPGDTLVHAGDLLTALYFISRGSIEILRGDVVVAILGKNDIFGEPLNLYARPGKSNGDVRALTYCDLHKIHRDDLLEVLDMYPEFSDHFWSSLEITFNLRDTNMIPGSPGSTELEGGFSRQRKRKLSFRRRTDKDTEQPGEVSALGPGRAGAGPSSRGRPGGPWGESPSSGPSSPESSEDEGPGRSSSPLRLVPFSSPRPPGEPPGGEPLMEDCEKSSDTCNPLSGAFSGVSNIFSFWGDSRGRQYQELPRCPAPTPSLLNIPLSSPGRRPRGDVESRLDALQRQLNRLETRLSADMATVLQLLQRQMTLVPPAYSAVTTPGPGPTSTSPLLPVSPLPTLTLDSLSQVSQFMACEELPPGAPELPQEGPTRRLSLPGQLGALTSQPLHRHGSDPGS

Row | Compound | hERG current change (%, negative = inhibition) at 10uM [%]
1 | COc1ccc(C(=O)N2CCCC(c3ccccc3)C2)cc1 (stereo not shown) | 7.04
2 | CCOc1ccccc1N(CC)C(=O)Cn1ncc2c(=O)oc3ccccc3c21 | -26.1
3 | CC(C)(C)NCC(O)COc1cccc2[nH]c(=O)[nH]c12.Cl (stereo not shown) | 7.11
4 | CC1=NN(c2ccc(C(F)(F)F)cn2)C(=O)C1 | 12.7
5 | CCC(=NCCCn1ccnc1)c1c(O)n(-c2ccc(OC)cc2)c(=O)[nH]c1=O | 4.28
6 | COc1cc(C(=O)NCc2nnc(SCC(=O)Nc3nc4ccccc4s3)o2)cc(OC)c1OC | 12
7 | O=C(NC(=S)Nc1ccccc1F)c1ccc(Br)o1 | 8.98
8 | CC(=O)N(c1ccc(C)cc1)c1nc(C)cc(C)c1C#N | 4.48
9 | C/C(=N\NC(=O)CC#N)c1ccc(Oc2ccccc2)cc1 | -5.66
10 | O=C(CSc1nnc(-c2ccccc2F)o1)Nc1ccc(N2CCOCC2)cc1 | 9.55
11 | O=C(Nc1ccccc1O)c1ccc([N+](=O)[O-])cc1 | -0.166
12 | CC1=C(C(=O)Nc2ccccc2)C(c2ccc(N(C)C)cc2)NC(=O)N1 (stereo not shown) | 6.98
13 | CC1=C(C(=O)N2CCCC(C(=O)c3cccc(C(F)(F)F)c3)C2)OCCO1 (stereo not shown) | 2.26
14 | O=C(Nc1c(C(=O)N2CCOCC2)cnn1-c1ccccc1)c1ccccc1F | 14.4
15 | CS(=O)(=O)N1CCN(C(=O)Cc2ccc(Br)cc2)CC1 | -1.44
16 | Cc1ccc(N2CC(c3nc4ccccc4n3C)CC2=O)cc1 (stereo not shown) | -21.5
17 | COc1cc(C)c(NC(=O)c2cc(C3CC3)nc3c2cnn3C(C)C)cc1OC | -27.8
18 | CCOc1ccc2nc(NC(=O)CS(=O)(=O)c3ccc(C)cc3)sc2c1 | -1.81
19 | Cc1cccc(NC(=O)COC(=O)c2cccc(S(=O)(=O)N3CCCCCC3)c2)c1 | -3.72
20 | O=C(COC(=O)[C@H](Cc1ccccc1)NC(=O)c1cccs1)Nc1cc(F)ccc1F | 1.18
21 | CC(=O)Nc1ccc(Oc2ccc(-c3noc(C)n3)cc2)cc1 | -7.05
22 | COc1cc(C(=O)NC(=S)Nc2ccc3[nH]c(=O)[nH]c3c2)cc(OC)c1OC | 11.4

Row | Compound | hERG current change (%, negative = inhibition) at 10uM [%]
23 | CCS(=O)(=O)c1nc(S(=O)(=O)c2ccc(Cl)cc2)c(N2CCC(O)CC2)s1 | -17.3
24 | CCCCCCCCC(=O)N/N=C(\C)c1cccnc1 | -4.59
25 | CCn1c(Cc2c(C)[nH]c3ccccc23)nnc1SCC(N)=O | 13.4
26 | CCCC(=O)N1CCN(c2ccc([N+](=O)[O-])cc2Cl)CC1 | -52.2
27 | Cc1ccc(S(=O)(=O)Cc2cccc(C(=O)N3CCOCC3)c2)cc1 | 5.76
28 | O=C(Cc1ccccc1)NC1c2ccccc2-c2ccccc21 | -2.8
29 | CCOC(=O)Cc1csc(NC(=O)CCN2C(=O)c3ccccc3C2=O)n1 | -13.1
30 | C/C(=N\NC(=O)c1ccc(F)cc1)c1ccc(NC(=O)Cc2ccccc2)cc1 | -16.9
31 | CC(C)C(c1nnnn1CCc1ccccc1)N1CCC(C(N)=O)CC1 (stereo not shown) | 3.58
32 | O=C(CN1C(=O)c2ccccc2C1=O)NC1CCCCCC1 | 20.4
33 | COc1ccc(-c2ccc(C#N)c(OC)n2)cc1 | 14.4
34 | COc1ccccc1C(c1nnnn1C(C)(C)C)N1CCN(Cc2ccccc2)CC1.Cl (stereo not shown) | -30.4
35 | Cc1cc(=O)oc(C)c1C(=O)NCc1ccccn1 | 5.7
36 | COc1ccc(C(=O)N(c2ccc(OC)cc2)S(=O)(=O)c2cccs2)cc1 | 2.98
37 | NC(=O)c1cc(Br)cc(C2CCCCC2)c1O | 10.1
38 | COc1ccc(C2=[N+]([O-])C(C)(C)C(c3ccccc3)=N2)cc1 | -14.8
39 | Cc1ccccc1C(=O)NC(=S)Nc1sc2c(c1C#N)CCCC2 | -14.4
40 | COc1ccc(NC(=S)N(CCCN2CCOCC2)C(C)c2cc3cccc(OC)c3o2)cc1 (stereo not shown) | -35.5
41 | Cc1ccc(C(=O)COc2ccccc2N2C(=O)c3ccccc3C2=O)cc1 | 1.98
42 | CN(C)/C=C/C(=O)c1ccc([N+](=O)[O-])c(CS(=O)(=O)c2ccc(Cl)cc2)c1 | -48.7
43 | CC1CCCC(NC(=O)c2ccc3c(c2)OCO3)C1C (stereo not shown) | -2.75
44 | COc1cc(C(=O)N2CCC(NC(=O)C(Cc3ccccc3)NC(C)=O)CC2)cc(OC)c1OC (stereo not shown) | -9.2

Row | Compound | hERG current change (%, negative = inhibition) at 10uM [%]
45 | c1cncc(Cc2cc3ccccc3[nH]2)c1 | -3.91
46 | COc1cccc(C(=O)Nc2ccncc2)c1 | 6.81
47 | O=C(CN1CCN(Cc2ccccc2)CC1)NC(=O)NC1CCCCC1 | -46.3
48 | COC(=O)c1cccc(NC(=O)Cn2cnc3ccccc3c2=O)c1 | 13.4
49 | NC(=O)C1CCN(C(=O)CC2(CC(=O)O)CCCC2)CC1 | 23.5
50 | CCC(=O)NC(c1ccc(C)cc1)c1ccc2cccnc2c1O (stereo not shown) | 9.79
51 | COc1ccccc1OCC(=O)NCCSCc1ccccc1Cl | -22.6
52 | CCOC(=O)c1c(NC(=O)CSc2cccc[n+]2[O-])sc(C(=O)Nc2ccccc2)c1C | -30.1
53 | CCS(=O)(=O)n1nc(-c2cccnc2)nc1NCc1ccc(F)cc1 | -26.4
54 | Cc1ccc(-c2nnc(SCc3nc4ccccc4[nH]3)n2Cc2ccco2)cc1 | -4.93
55 | Cc1ccc(N2CC(C(=O)Nc3nc4ccc(S(C)(=O)=O)cc4s3)CC2=O)cc1 (stereo not shown) | -23.9
56 | N#CC(C#N)=Cc1ccc(-c2ccccc2F)o1 | 7.76
57 | Cc1cc(-c2ccccc2)nc(SCC(=O)N2CCCC2)n1 | -2.19
58 | S=c1[nH]nc(C2CCCCC2)n1/N=C/c1ccccc1Br | 16.2
59 | COC(=O)c1c(NC(C)=O)sc2c1CCN(Cc1ccccc1)C2.Cl | -9.29
60 | COc1ccccc1NS(=O)(=O)c1cc(C(=O)NCC(c2ccc(F)cc2)N2CCOCC2)ccc1C (stereo not shown) | -19.1
61 | O=C(NCCCO)c1cc2c([nH]c3ccccc32)c(-c2ccccc2)n1 | -33.8
62 | Cc1nn2c(N)c(C#N)cnc2c1-c1ccc(Cl)cc1 | -0.156
63 | O=[N+]([O-])c1cccc(/C=N/Nc2nc(N3CCOCC3)nc(N3CCOCC3)n2)c1 | 5.21
64 | CCCOc1ccc(N2C(=O)C3ON(c4ccccc4)C(c4ccc(O)c(OC)c4)C3C2=O)cc1 (stereo not shown) | -6.84
65 | COc1ccc(NC(=O)NC2CCCCCCC2)c(OC)c1 | 8.12
66 | O=c1[nH][nH]c(-c2ccccc2)c1C=Nc1ccc(C(F)(F)F)cc1 | 12

Row | Compound | hERG current change (%, negative = inhibition) at 10uM [%]
67 | O=C(NCC1CCCO1)C1CCN(S(=O)(=O)c2cccc3cccnc23)CC1 (stereo not shown) | 6.1
68 | Cc1cc2ccccc2n1CCNC(=O)C(C)Oc1ccccc1 (stereo not shown) | 0.186
69 | O=C(Cn1nc(C(=O)O)c2ccccc2c1=O)Nc1cc(Cl)cc(Cl)c1 | 12.1
70 | N#Cc1ccccc1OCC(=O)N1CCN(C(=O)c2ccco2)CC1 | -3.36
71 | Cc1ccccc1NS(=O)(=O)c1ccc(NC(=O)CSCc2ccc(Br)cc2)cc1 | 16.5
72 | CCOc1cc(N2CCOCC2)c(OCC)cc1NC(=O)COC(=O)CCOc1ccc(C(C)(C)C)cc1 | -37.1
73 | CCN(/N=C/c1cccs1)c1cc(=O)n(C)c(=O)[nH]1 | -8.12
74 | Cc1ccc(-n2c(C)cc(C(=O)CN3CCOCC3)c2C)cc1 | -5.65
75 | CN(C)/C=C1\SC(=S)N(N2C(=O)C3C4C=CC(C4)C3C2=O)C1=O (stereo not shown) | -0.75
76 | Cc1nonc1OCCN1CCN(c2ccccc2[N+](=O)[O-])CC1.Cl | -37.2
77 | COc1ccc2c(c1)[nH]c1c(=O)n(Cc3ccncc3)cnc12 | -18.8
78 | O=C(CCn1cnnn1)Nc1ccccc1F | 6.63
79 | OCC[C@H]1C[C@@H](O)[C@H](O)[C@]2(Cc3ccccc3CCO2)O1 | -0.537
80 | CN(c1ccc(OCC(=O)OCC(=O)Nc2ccccc2)cc1)S(=O)(=O)c1cccs1 | -7.15
81 | Cc1ccc(S(=O)(=O)NC2=NCCCCC2)cc1 | -5.86
82 | CN1CCN(c2ccc([N+](=O)[O-])cc2NC(=O)c2ccccc2Cl)CC1 | -71.1
83 | CCOc1ccccc1NC(=O)C(OC(=O)c1ccc(O)cc1)c1ccccc1 (stereo not shown) | -15.1
84 | O=C(COc1ccccc1)Nc1ccc(OC(F)(F)C(F)F)c(NC(=O)COc2ccccc2)c1 | 0.083
85 | Cc1cc([N+](=O)[O-])ccc1NC(=O)CCC(=O)N1CCCCC1 | -23.9
86 | CC(C)(C)n1nc2c(c1NC(=O)c1cc([N+](=O)[O-])ccc1Cl)CS(=O)(=O)C2 | 2.01
87 | C/C=C/COc1nc2c(c(=O)n(C)c(=O)n2C)n1C | 7.25
88 | C/C(=N\NC(=O)c1cccc(Br)c1)c1cccc(NC(=O)c2ccc(C)o2)c1 | -6.46

Reference: publication PMC4336329 (PLoS ONE, 2015)
